Measurements as given in PMC4336329 (PLoS ONE, 2015).
The whole screen tested about 310,000 compounds, of which about 14,000 (4.5%) showed an effect of 50% or more. Effects have a minus sign here. The list shows a part of the results.

Target: human ether-à-go-go-related gene (hERG) potassium channel (human, UniProt Q12809)
Assay: primary screen, population patch clamp on CHO cells stably expressing hERG
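Also: peak tail current of the secondary pulse compared with the same well before compound.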

human ether-à-go-go-related gene (hERG) potassium channel, sequence (Q12809 whole entry, looked up): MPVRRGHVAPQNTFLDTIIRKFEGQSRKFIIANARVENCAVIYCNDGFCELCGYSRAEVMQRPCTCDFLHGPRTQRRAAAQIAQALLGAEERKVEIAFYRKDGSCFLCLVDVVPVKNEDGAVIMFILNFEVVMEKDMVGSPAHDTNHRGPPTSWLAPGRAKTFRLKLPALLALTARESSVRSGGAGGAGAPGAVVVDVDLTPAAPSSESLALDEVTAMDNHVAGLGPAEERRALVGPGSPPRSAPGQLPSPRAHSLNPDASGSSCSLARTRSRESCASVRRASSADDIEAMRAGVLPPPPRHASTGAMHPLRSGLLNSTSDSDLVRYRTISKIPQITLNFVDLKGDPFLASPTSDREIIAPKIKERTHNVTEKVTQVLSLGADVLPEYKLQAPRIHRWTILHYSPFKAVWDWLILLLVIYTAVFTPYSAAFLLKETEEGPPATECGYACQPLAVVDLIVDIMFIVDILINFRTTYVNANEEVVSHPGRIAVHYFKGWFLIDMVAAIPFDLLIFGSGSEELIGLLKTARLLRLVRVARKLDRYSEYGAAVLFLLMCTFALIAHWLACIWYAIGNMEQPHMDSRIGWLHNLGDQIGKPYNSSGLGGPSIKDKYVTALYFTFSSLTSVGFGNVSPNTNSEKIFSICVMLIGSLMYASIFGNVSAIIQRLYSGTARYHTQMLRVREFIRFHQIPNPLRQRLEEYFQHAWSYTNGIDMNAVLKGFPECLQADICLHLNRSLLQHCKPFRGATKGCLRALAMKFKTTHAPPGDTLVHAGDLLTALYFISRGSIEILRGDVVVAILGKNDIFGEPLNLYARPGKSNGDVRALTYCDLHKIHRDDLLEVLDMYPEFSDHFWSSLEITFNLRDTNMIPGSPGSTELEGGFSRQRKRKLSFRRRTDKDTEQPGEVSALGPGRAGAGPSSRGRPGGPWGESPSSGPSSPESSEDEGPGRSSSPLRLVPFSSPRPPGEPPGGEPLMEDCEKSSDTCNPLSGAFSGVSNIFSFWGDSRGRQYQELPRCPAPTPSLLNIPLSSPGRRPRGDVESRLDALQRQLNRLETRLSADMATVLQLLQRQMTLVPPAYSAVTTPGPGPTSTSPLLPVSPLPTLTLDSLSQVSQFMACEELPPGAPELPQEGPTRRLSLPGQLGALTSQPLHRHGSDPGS

| Compound | hERG current change (%, negative = inhibition) at 10uM [%] |
| --- | --- |
| O=c1[nH]c(Cc2cccs2)nc2ccccc12 | 3.61 |
| CCNC(=O)CSC1=N/C(=C\c2ccc(O)c(OCC)c2)C(=O)N1c1ccc(OC(F)F)cc1 | 6.33 |
| CC(NC(=O)c1cn(C(C)c2ccccc2F)nn1)c1ccncc1 (centres unmarked) | 11.9 |
| O=C1CC(N2CCN(c3ccccc3)CC2)C(=O)N1c1ccc(Cl)cc1 (centres unmarked) | 10.9 |
| COCCn1c(SCC(=O)Nc2ccc(C(N)=O)cc2)nc2c([nH]c3ccccc32)c1=O | 15.2 |
| CC1=NN(C(=O)CCCc2ccccc2)C(O)(C(F)(F)F)C1 (centres unmarked) | 2.65 |
| Cl.N=c1sccn1CC(=O)Nc1cc(Cl)ccc1[N+](=O)[O-] | 2.64 |
| O=C(O)c1ccc(NC(=S)NC(=O)c2ccc(-c3ccc(Br)cc3)o2)cc1 | 18.3 |
| Cc1cc(C)cc(NC(=O)CC23CC4CC(C2)CC(n2nnc(C)n2)(C4)C3)c1 | -36.2 |
| COc1ccc(OC)c(/C=N/NC(=O)CNC(=O)c2ccc(S(=O)(=O)N3CCOCC3)cc2)c1 | -19.3 |
| O=S(=O)(Nc1c(O)ccc2ccccc12)c1ccccc1 | -25.1 |
| COc1ccc(N2C(=O)CCC(C(=O)c3ccccc3)=C2C)cc1 | -11.1 |
| Cc1c(Cl)c([N+](=O)[O-])nn1CC(=O)N1CCN(C23CC4CC(CC(C4)C2)C3)CC1 | 19.9 |
| Cc1ccc(C)c(-c2nnc(NC(=O)Cc3ccccc3)o2)c1 | 16.1 |
| COCCNc1nnc(SCC(=O)c2ccc3c(c2)OCO3)s1 | -9.11 |
| Cc1cc(C)cc(NC(=O)COC(=O)c2n[nH]c3ccccc23)c1 | 23.4 |
| NC(=O)C1Cc2ccccc2CN1S(=O)(=O)c1cccs1 (centres unmarked) | -3.3 |
| CCC(C)(C)NC(=O)CN(CC1CCCO1)C(=O)CNS(=O)(=O)c1ccccc1 (centres unmarked) | -9.99 |
| O=C(NCc1ccc2c(c1)OCO2)C(=O)NCC(c1ccco1)N1CCN(c2ccccc2)CC1 (centres unmarked) | 16 |
| COc1ccc(NC(=O)CSc2nc3ccccc3nc2N2CCCC2)c(OC)c1 | 24.1 |
| COc1ccc(NC(=O)N2CCC(C(=O)c3ccc4c(c3)OCCO4)CC2)cc1 | 2.64 |
| COc1ccc(N2CCN(C(c3cc4cc(C)ccc4[nH]c3=O)c3nnnn3Cc3ccccc3)CC2)cc1 (centres unmarked) | -8.91 |
| O=C(Cc1ccc(Cl)cc1Cl)OCC(=O)c1ccc[nH]1 | 11.9 |
